Measurements taken from paper PMC10266789 (The Journal of Clinical Investigation, 2023).
Read-outs that look alike come from different tables or passages of the source.

Columns and labels:
[1] = system: c-Myc in MRC-5 human diploid fibroblasts; assay: Western blot of c-Myc in MRC-5 fibroblasts; type: cell-based; conditions: 72 h
[2] = Host cell cytotoxicity, MRC-5; conditions: human
MRC-5 cells [3] = assay: Host cell cytotoxicity, MRC-5
Mouse tolerability = type: in vivo; conditions: 50 mg/kg p.o. b.i.d. for 14 days; NOG mice
[4] = system: Zika virus (strain DAK41525); assay: microbe, parasite or virus in culture; conditions: Fibroblast, read-out: IC50, Zika
[5] = target: T1, SIRT2 demyristoylase activity (Homo sapiens, UniProt Q8IXJ6); assay: SIRT2 demyristoylase assay with Myr-H3K9WW peptide; type: biochemical; conditions: Supplemental Table 1
T1 construct: purified, recombinant SIRT2^2–389, SIRT1^1–747, or SIRT3^1–400 protein (GenScript); purchased GenScript
T1 sequence (Q8IXJ6 2-389): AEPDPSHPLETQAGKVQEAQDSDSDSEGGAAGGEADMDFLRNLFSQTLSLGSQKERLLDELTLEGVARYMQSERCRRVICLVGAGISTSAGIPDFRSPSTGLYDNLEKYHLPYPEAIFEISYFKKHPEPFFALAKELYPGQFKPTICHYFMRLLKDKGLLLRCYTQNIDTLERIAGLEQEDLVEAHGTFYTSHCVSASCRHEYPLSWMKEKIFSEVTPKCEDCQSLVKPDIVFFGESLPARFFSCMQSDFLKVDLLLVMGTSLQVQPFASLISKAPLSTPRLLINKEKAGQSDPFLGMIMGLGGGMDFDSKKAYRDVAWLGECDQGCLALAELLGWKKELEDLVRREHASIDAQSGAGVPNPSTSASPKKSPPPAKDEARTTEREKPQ

HCMV (strain TB40/E) [6] = conditions: Table 2; for SI CC50/IC50: HCMV/MRC-5
[7] = system: Respiratory syncytial virus (strain Long); assay: microbe, parasite or virus in culture; conditions: human respiratory syncytial virus, MRC5, read-out: IC50, RSV
[8] = system: Respiratory syncytial virus (strain Long); conditions: RSV/human MRC-5
[9] = system: HCMV TB40/E-mCherry-UL99eGFP; assay: HCMV treat-release experiment, TCID50 of culture medium; conditions: cell count, lactate dehydrogenase activity
[10] = system: Junin virus (strain Candid 1); conditions: Junin/human HFF
HCMV (strain TB40/E) [11] = assay: microbe, parasite or virus in culture
[12] = Host cell cytotoxicity, dNHBE; type: cell-based; conditions: dNHBE cells; human dNHBE; Influenza A assay
recombinant human SIRT3 = target: T2, recombinant human SIRT3 (Homo sapiens, UniProt Q9NTG7); assay: SIRT deacylase assay, deacetylation of Ac-H3K9WW peptide, mass spectrometry; type: biochemical; conditions: Figure 1C; n = 3
T2 construct: purified, recombinant SIRT2^2–389, SIRT1^1–747, or SIRT3^1–400 protein (GenScript); purchased GenScript
T2 sequence (Q9NTG7 1-399): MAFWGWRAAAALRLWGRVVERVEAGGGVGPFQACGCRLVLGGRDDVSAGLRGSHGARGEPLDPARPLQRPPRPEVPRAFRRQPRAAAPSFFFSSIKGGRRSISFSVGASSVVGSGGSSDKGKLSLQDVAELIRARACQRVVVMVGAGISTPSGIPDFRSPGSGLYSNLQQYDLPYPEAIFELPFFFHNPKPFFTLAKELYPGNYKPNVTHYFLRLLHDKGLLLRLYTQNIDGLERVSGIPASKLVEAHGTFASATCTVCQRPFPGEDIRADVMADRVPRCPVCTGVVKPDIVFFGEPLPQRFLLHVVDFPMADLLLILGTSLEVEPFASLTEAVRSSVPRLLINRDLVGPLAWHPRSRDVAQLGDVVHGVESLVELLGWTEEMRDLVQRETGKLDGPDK

[13] = system: Junin virus (strain Candid 1); assay: microbe, parasite or virus in culture; conditions: Mammarenavirus juninense, read-out: IC50, Junin
[14] = system: HCMV TB40/E-mCherry-UL99eGFP; assay: HCMV treat-release-infect experiment, infected cell area; type: cell-based, human cytomegalovirus; conditions: Human betaherpesvirus 5, read-out: IC50, viral spread after pretreatment
recombinant human SIRT2 = target: T3, recombinant human SIRT2 (Homo sapiens, UniProt Q8IXJ6); assay: SIRT deacylase assay, deacetylation of Ac-H3K9WW peptide, mass spectrometry; type: biochemical
T3 construct: purified, recombinant SIRT2^2–389, SIRT1^1–747, or SIRT3^1–400 protein (GenScript); purchased GenScript
T3 sequence (Q8IXJ6 2-389): T1 sequence (Q8IXJ6 2-389)

[15] = system: Epstein-Barr virus (EBV; strain Akata)
[16] = system: Betacoronavirus 1 (strain OC43); assay: microbe, parasite or virus in culture; conditions: Betacoronavirus 1, OC43, MRC5, read-out: IC50, HCoV-OC43
MRC-5 cells [17] = system: MRC-5 cells
SIRT2 = conditions: reported SIRT2 IC50s from literature; cited from earlier work

Cc1cn(-c2ccc3c(c2)CN(c2ncc(Cc4ccc(-n5cccn5)cc4)s2)CC3)c(C)n1 [FLS-359, 7-(2,4-dimethyl-1H-imidazol-1-yl)-2-(5-{[4-(1H-pyrazol-1-yl)phenyl]methyl}-1,3-thiazol-2-yl)-1,2,3,4-tetrahydroisoquinoline]
c-Myc protein level [1]: not changed | CC50 at 7 days ([2]; Host cell CC50, human MRC-5, HCMV assay): > 15.8 µM | CC50 ([2]; Host cell CC50, human MRC-5, HCoV-OC43 assay): > 50 µM | CC50 ([2]; Host cell CC50, human MRC-5, RSV assay): > 12.5 µM | CC50 at 7 days ([2]; MRC-5 CC50, uninfected MRC-5, DAPI cell count after 7-day treatment): > 15.8 µM | tolerability in dividing MRC-5 cells (MRC-5 cells [3]; 6 days): tolerated | tolerability in confluent MRC-5 cells (MRC-5 cells [3]; 7 days, counting of nuclei or neutral red uptake): well tolerated | tolerability (weight, clinical signs) (Mouse tolerability): No weight loss and no adverse clinical signs were observed | IC50 [4]: 0.4 µM | IC50 [5]: > 100 µM | SI CC50/IC50 (HCMV (strain TB40/E) [6]): >31.6 | IC50 [7]: 6.7 µM | SI CC50/IC50 [8]: >1.9 | cellular toxicity at 96 hours after removal of the drug [9]: Minimal cellular toxicity | SI CC50/IC50 [10]: >7.8 | IC50 (HCMV (strain TB40/E) [11]; Human betaherpesvirus 5, MRC5, in Homo sapiens, read-out: IC50, HCMV, human MRC-5, Table 1): 0.5 µM | IC90 (HCMV (strain TB40/E) [11]; Human betaherpesvirus 5, MRC5, read-out: FLS-359 IC90 for inhibition of HCMV): 2.06 µM | IC50 (HCMV (strain TB40/E) [11]; Human betaherpesvirus 5, MRC5, read-out: HCMV IC50, Table 2, infected MRC-5 cell area at 7 dpi, n = 2): 0.5 µM | EC90 (HCMV (strain TB40/E) [11]; Human betaherpesvirus 5, MRC5, read-out: approximate EC90 against HCMV): ~5 µM | CC50 [12]: > 100 µM | IC50 (recombinant human SIRT3): > 100 µM | IC50 [13]: 3.2 µM | IC50 [14]: 4.8 µM | IC50 (recombinant human SIRT2; 50 μM NAD, Ac-H3K9WW 5 μM, read-out: SIRT2 IC50): ~2.6 µM | IC50 (recombinant human SIRT2; 50 μM NAD, Ac-H3K9WW 50 μM, read-out: SIRT2 IC50): ~5.6 µM | IC50 (recombinant human SIRT2; 100 μM NAD, Ac-H3K9WW 5 μM, read-out: SIRT2 IC50): ~2.6 µM | IC50 (recombinant human SIRT2; 100 μM NAD, Ac-H3K9WW 50 μM, read-out: SIRT2 IC50): ~5.5 µM | IC50 (recombinant human SIRT2; 200 μM NAD, Ac-H3K9WW 5 μM, read-out: SIRT2 IC50): ~3.2 µM | IC50 (recombinant human SIRT2; 200 μM NAD, Ac-H3K9WW 50 μM, read-out: SIRT2 IC50): ~8.8 µM | IC50 (recombinant human SIRT2; 500 μM NAD, Ac-H3K9WW 5 μM, read-out: SIRT2 IC50): ~2.8 µM | IC50 (recombinant human SIRT2; 500 μM NAD, Ac-H3K9WW 50 μM, read-out: SIRT2 IC50): ~8.3 µM | increase in SIRT2 IC50 when peptide raised from 5 μM to 50 μM (recombinant human SIRT2; 1x Km to 10x Km peptide): about 2 fold | IC50 (recombinant human SIRT2; Figure 1C, n = 3, read-out: SIRT2 IC50, deacetylation of Ac-H3K9WW): ~3 µM | IC50 (recombinant human SIRT2; Supplemental Table 1, triplicate, read-out: Deacetylase pIC50 ± SE (converted)): 3.16 µM | Deacetylase NTV (Net Terminal Value, percent SIRT2 activity with saturating compound) (recombinant human SIRT2; Supplemental Table 1, ± SE): 6.5 ± 4.0% | IC50 (recombinant human SIRT2; Table 2, FLS-359 value from Figure 1, C and D, read-out: SIRT2 IC50): 3 µM | IC50 (recombinant human SIRT2; all NAD+ concentrations, peptide 5 μM, read-out: SIRT2 IC50): ~3 µM | IC50 (recombinant human SIRT2; all NAD+ concentrations, peptide 50 μM, read-out: SIRT2 IC50): ~7 µM | accumulation of EBV BZLF1, BMRF1 and BLLF1 mRNAs ([15]; 10 μM, qRT-PCR, Akata BL cells induced with anti-IgG): inhibited the accumulation | SI CC50/IC50 ([15]; Epstein-Barr/human Akata): >26.3 | IC50 [16]: 1.7 µM

O=[N+]([O-])c1ccc(Sc2nnc(COc3ccccc3)n2-c2ccccc2)c2ncccc12 [MIND4]
CC50 (MRC-5 cells [17]): 19.8 µM | IC50 (SIRT2): 3.5 µM | SI CC50/IC50 (HCMV (strain TB40/E) [6]): 1.4 | IC50 (HCMV (strain TB40/E) [6]; read-out: HCMV IC50, infected MRC-5 cell area at 7 dpi, n = 2): 14.4 µM
